Data published in the supplement of paper PMC13380429.

How the values were obtained:
Assay in all cases: drug sensitivity score (DSS) for viability; higher = more toxic; extreme values may be limits of the assay
Conditions in all cases: 72 h
U2OS = tested on: U2OS
HepG2 = tested on: HepG2
Caco-2 = tested on: Caco-2
Calu-3 = tested on: Calu-3
Vero E6 = tested on: Vero E6

Compound: Cc1nc2c(-c3cnc(N)nc3)nc(N3CCOCC3)nc2n1C(C)C [SB-2343]
- drug sensitivity score (U2OS): 11.5
- drug sensitivity score (HepG2): 12.8
- drug sensitivity score (Caco-2): 15.2
- drug sensitivity score (Calu-3): 15.4
- drug sensitivity score (Vero E6): 11.1
